According to the supplement of paper PMC10126150:
Sequences with one replicate were seen in a single cluster, so their values are uncertain.

Tested on: ATP
Test: switch fluorescence ratio, 500 uM ATP over buffer (Cy3 cluster intensity, sum of 5 cycles each) (fold (ratio)); higher = stronger signal-on switching upon ATP binding; sequences stand for … in TCGTCGGCAGCGTCAGATGTGTATAAGAGACAGTTTTTTTTTTTTTTTTTTTTTTTTT…TC
Conditions: aptamer strand: ATP DNA aptamer (quencher-CACCTGGGGGAGTATTGCGGAGGAAGG + anchor), 100 nM annealed; ATP concentration: 500 uM; one replicate
Outline: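 The quencher-labelled ATP aptamer, at 100 nM, was annealed to Cy3-labelled switching-strand clusters on a modified Illumina MiSeq flow-cell. The clusters were imaged in selection buffer, then after 15 min with 500 uM ATP at 22 °C, and this buffer/ATP cycle ran five times with NaOH stripping and re-annealing between runs. Per-cluster fluorescence ratios, summed target-cycle over summed buffer-cycle Cy3 intensity, were averaged per switch-domain sequence. Clusters outside 100-1000 RFU were excluded.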
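Further: ATP exposure 15 min at 22 °C before imaging.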

Sequence | switch fluorescence ratio
ATATCAGGC | 1
AAGGCAATGA | 1.8
CCCGCTTCCG | 1.35
TCGTAATATT | 1.2
CGTCGCGACC | 0.986
AAGATTCTGT | 1
AACTACGGGA | 1.19
CTGGTTTGTA | 0.954
TAAGGAAGT | 0.987
CCTATAGATG | 1.04
GGGTGCTTTA | 0.996
CGAGGGCTTA | 1.03
GCCAAAACAA | 0.99
AAGTATAGCG | 0.907
CATGGACTAC | 1.06
TATATAATTC | 1.03
GATTAATAAC | 0.996
TTACTGTTCC | 1.04
CGGGAGCCGA | 0.989
TCGGCAGTG | 1.08
GAATAATCTG | 1.06
TGTCGCTCCA | 1
GATTACCATG | 1.01
ATAGGTAGCC | 0.988
CAGGTCGGTT | 0.944
GAGCGGGTTA | 0.981

Sequence | switch fluorescence ratio
TGTCGCTT | 1.07
TTATCCCGTT | 1.05
GGCCGGAGGA | 0.995
GGCAGCCCCC | 1.05
ACCGTGTGGT | 0.991
AGTCGCCACG | 0.986
TTCGTACACG | 0.99
GGACAACACA | 1.1
TAGAAGCTAG | 1
TTTCGAAGGA | 1.02
GGGATAATCT | 1.01
GCGTTCTAAC | 1.03
CTTACATTC | 1.04
GGATTAGTAA | 0.995
GTCACAAGTA | 0.992
TTAGGAACGA | 1.05
CTATCTTCGC | 1.04
AGTCCACAAA | 1.09
GATATCATCA | 0.975
GAAGCTCGTT | 1.01
CCGTAAACT | 3.26
GGGTGCCCAG | 0.987
ATTCCTCTGA | 1.25
CCGGTAAAGG | 1.1
TTGGAAAAAA | 0.978
GTTTTGACAG | 0.986

Sequence | switch fluorescence ratio
TGTTTTAACC | 0.994
GAGACAAAA | 1.03
ACTATACGGT | 1.43
CATGGTCTGC | 0.964
GTTAATTAGT | 0.991
GGGTAGAGAG | 0.974
ATAAGGTGTG | 0.981
TCGAATAGCT | 1.06
TGTATTTCGC | 0.992
ATTTCAGGTG | 3.59
GGGATTCGCG | 0.93
TTTGTAGTGA | 1.05
AATCAGACGC | 1.05
TTAAAATTC | 0.968
TTGGTCGGCT | 1.04
GTAGGTAAAG | 0.997
ACGGCCACGT | 1.03
GGCCATAATC | 0.986
TATTGTGGAA | 0.955
GATGCGGTCG | 1.04
AGATTGTCGA | 1
CGTGTTTAAC | 0.979
TGGGACAAAA | 1
TCATATTGAA | 0.987
TCCGAGGTCG | 1.08
AAACCTCGCT | 1.28

Sequence | switch fluorescence ratio
TCAGCTTCAC | 2.04
ACTAATGCCC | 0.98
CATTTGTACG | 1.04
TTAAGGTCTG | 0.976
AGTCAAGTTC | 1.02
TCGTGCGTTC | 1.03
TTGGTGGCCC | 0.971
TATCGATCTA | 0.986
AGGAAGTTGT | 0.991
AGCATAGA | 1.01
AAGGTACGCA | 1.04
CGTGTGGTCA | 0.961
GGGGAAGTG | 0.977
AGACTGGTCT | 0.979
GCGCATGACG | 1.04
TATTGAGAGG | 1.04
CGGAAATATT | 1.01
ATAGACACCT | 1.2
CGAGCGGGCC | 1.04
CTTAGCTCAT | 1.07
ACCAGGGAAC | 1.05
TAGACGTAAT | 1.22
CGTATACACT | 0.985
GCAAAAGGCA | 1.06
CTGACCTAAG | 0.987
TAAGAGCCGA | 0.987

Sequence | switch fluorescence ratio
AGCACGCCCA | 1.24
TAGCCAGTTG | 1.02
CACAAACAGG | 1.45
ACAACCAACA | 1.07
TGGGGGTTA | 0.995
TCCAAGGGAG | 0.978
TTTCTCAATA | 2.26
AGGGGATGTT | 1.03
CTTTTAAGAA | 0.994
CTACCGACAT | 1.31
GCTAGCGGGC | 1.03
GAGTAGCTTA | 0.987
CCCGTGTGCT | 1.06
AATACTTATT | 1.01
GGGACGAAAG | 1.04
GGAGTAGCGG | 1.08
CCCTTTGTCC | 1.07
TTGACCCGTG | 1.02
AGGTTCCGCG | 1.12
GTGCTGGCGG | 1.01
AATGTCCTTT | 0.989
CGCGTGAGGG | 1.03
AGGCTTTTCA | 0.988
AGGGTACGTA | 0.988
CTAAATTGAG | 0.962
CGAGACAGG | 1.13

Sequence | switch fluorescence ratio
TACAACGGAG | 1.04
CGGGAGGGAT | 1.18
AGCCGTCGAT | 0.994
AAACGGCATT | 1.08
GTGCCCGAAA | 1.07
AATGATTAT | 0.93
GAGGGAGT | 1.04
AGGCCAATA | 1.04
GTTTTTAG | 0.973
GAAGTGCAAG | 1.03
TCAAGCACTC | 1.44
TGGCACTCCG | 1.03
CTGAGGGAGG | 0.983
ACAGTCTATA | 0.993
GGGCTTCACG | 0.985
AGAGTCATCT | 0.979
TAATCATGGC | 1.02
CATTTGTGAA | 0.946
GTTAGAGCCC | 0.963
CTATTGAGCG | 1.02
GTAGGTGTTT | 1.03
ACGTAGATCA | 1.08
TTCCTCACCT | 1.23
ACATGTGGTG | 0.997
AACTATCCT | 0.996
GTACTTCGCC | 1.26

Sequence | switch fluorescence ratio
ATCATGTCTG | 1.02
AGCAGCCA | 1.03
TCAGAGCCAT | 1.03
TCTCAGATA | 0.937
GTGTCAGGG | 0.999
ATTTAGATCA | 0.986
GTTGGATACG | 1.01
CCTACATGAT | 1.15
CATGTGACGA | 1.01
CCCATTTATT | 0.944
ATTGTGGGTG | 1.01
AGCCCCTATT | 1.02
ATCCTCGAGA | 1.03
CCAATCCACG | 1.06
TAATGGAGTC | 0.987
GTGAGGCCGG | 1.05
ATTACTGCTG | 1.04
TCGTATTCGA | 1.02
GACAATTATA | 1.02
ATAATGGTCT | 1.07
CGTGACGTCA | 0.978
AGGGGTCGCA | 1.02
ATGGTTCGGT | 1.01
TTCATAGGGT | 0.949
AACGGCTTAG | 1.01
CTTAGACAAG | 0.963

Sequence | switch fluorescence ratio
GGCGCTTAGT | 0.959
ACAGGCGAGG | 1.05
TATGTCTTTC | 0.977
ATGCATGGCT | 1.04
GGACTCTTTG | 1.03
TCCTGACCGT | 1.12
TTATGCCCGT | 0.969
CGCCGGTAAT | 1.11
GCGTCCCCGG | 1.28
CATTTATGGC | 1.06
CTGGTCGCAC | 1.06
GTATGGCGCT | 0.984
GAATCGGATG | 0.994
TGTTCGTTA | 1.01
GAGGACTAGT | 1.03
CGAAGAGGTA | 1.02
TGTGGGTGTG | 0.94
CGTTACACGC | 1.02
GCTAGCAGC | 0.973
